According to the RNAGym collection of RNA variant scans (doi:10.7554/elife.90254):
Read counts are not given, so values of variants with three or more changes are uncertain.

B1: LINE1-mini (parent)
chain: GGCAGAGCUCAACACAGCGUGGCAAAGUGGCUGUGGCUAGACUGCC

Variants of: B1
Test: self-cleavage, relative activity (ratio to wild type); higher = more cleavage; in vitro, sequencing; the parent is a self-cleaving ribozyme
For G1C G17U G22A A24U, the self-cleavage was 0.02. Variant G1C U28A G40C U43A has a self-cleavage of 0.01. Work on G1C G5A U20G yielded a self-cleavage of 0.01. Variant G1U C8G G21C G33A has a self-cleavage of 0.02. With G1U A16C G27U G36U the self-cleavage was 0.08. Work on G1C C18G C31A U43C yielded a self-cleavage of 0.02. G1U C8G A12G A25G A26C G44A C45A gave a self-cleavage of 0.01. Work on G1C G2U C10U C15A G27C G36U A41C C46U yielded a self-cleavage of 0. Work on G1C A14U A16C yielded a self-cleavage of 0. For G1C C15U U28G, the self-cleavage was 0.07. For G1C C13A A14G A41C, the self-cleavage was 0. G1C G29U G30A showed a self-cleavage of 0.05. With G1U A11C C15G G19A the self-cleavage was 0.01. With G1U C8U A26G C46A the self-cleavage was 0.08. With G1C A25C U38G G44C the self-cleavage was 0. G1C C18U G36C C37G U38A gave a self-cleavage of 0. G1C C15A U38A A41G gave a self-cleavage of 0. With G1U C3U G22C G27C G36C the self-cleavage was 0.1. G1C A11C A12C U28A U43A gave a self-cleavage of 0. With G1U C3A C8A G21A C23A the self-cleavage was 0.51. Work on G1U C8A C13A C45U yielded a self-cleavage of 0.28. G1C C15A G17A C31G G33A gave a self-cleavage of 0.01. G1U A6U A24C A25U U32C gave a self-cleavage of 0.07. In the case of G1C G5U A11U A12C U20C C23U A26C G30A, the self-cleavage is reported as 0. Work on G1C G5A U9C A39C C46G yielded a self-cleavage of 0.01. Work on G1C A25C G27U yielded a self-cleavage of 0.07. With G1U A4G A26G the self-cleavage was 0.14. G1U C10G C15G G36A U38G gave a self-cleavage of 0.02. G1U A12U A24C G40A showed a self-cleavage of 0. For G1C A25G G35U, the self-cleavage was 0.01. G1C G7U C46A gave a self-cleavage of 0.02. For G1C G2U G5U A16C, the self-cleavage was 0.03. Variant G1C G2A C3G G21U has a self-cleavage of 0.04. Variant G1U A6G C8A has a self-cleavage of 0.09. G1U A4C A25G C46U gave a self-cleavage of 0.02. For G1C G7U U20A C46A, the self-cleavage was 0.02. For G1C G17C A26C G35C, the self-cleavage was 0.02. Variant G1C C23U G30C U43C has a self-cleavage of 0.03. Work on G1U C3A A6C C8G U9C C42U yielded a self-cleavage of 0.08. For G1C U9C A26G G35U C45A, the self-cleavage was 0.01. G1U A11C G40U gave a self-cleavage of 0.07. G1U A14C U32G G33U C45U gave a self-cleavage of 0.04. G1U C8U A14G C15A G17A gave a self-cleavage of 0.2. G1C A26C C31G U34A showed a self-cleavage of 0.02. G1U A11U C31G U38C showed a self-cleavage of 0. G1C G22U G29A showed a self-cleavage of 0.12. For G1C A11G C46U, the self-cleavage was 0.06. Variant G1U A4U G5C C23G G33C has a self-cleavage of 0.06. G1U A11C C23A gave a self-cleavage of 0.02. In the case of G1C A12U C13U, the self-cleavage is reported as 0.04. In the case of G1U C10A A24C, the self-cleavage is reported as 0.01. G1C C23A A24C G33U gave a self-cleavage of 0.02. Work on G1U C8U U20C yielded a self-cleavage of 0.02. G1U A6U A16U G30C A39G showed a self-cleavage of 0.09. Variant G1U C8U G35U G40C has a self-cleavage of 0.15. G1U C3G G17U showed a self-cleavage of 0.13. In the case of G1U A26G G36C G44C, the self-cleavage is reported as 0.03. Variant G1U A4C U9C G21A U34A G40U has a self-cleavage of 0.01. Variant G1C C3A A12U A14C G19U C42A has a self-cleavage of 0.05. G1C G21U U28A G40A showed a self-cleavage of 0.03. With G1C G2A C3U G33C U34G the self-cleavage was 0.06. For G1U A14G G19U U28C A39G, the self-cleavage was 0.03. In the case of G1U C8G A26G, the self-cleavage is reported as 0.01. In the case of G1C U9C A11G C13G G27C A41U C45G, the self-cleavage is reported as 0. G1C G5C C8G A26G A39G C46U gave a self-cleavage of 0.12. In the case of G1C C23A U28G, the self-cleavage is reported as 0.11. For G1C A16U A26C G35A, the self-cleavage was 0.03. For G1C U20C C31U G33C, the self-cleavage was 0.02. Work on G1C G7C A14U yielded a self-cleavage of 0.02. Work on G1U C8G U34A yielded a self-cleavage of 0.04. G1C G2U G21A G29C showed a self-cleavage of 0.07. With G1C G2U G5A A12C the self-cleavage was 0.02. G1C U20C A26U G30U C46A gave a self-cleavage of 0.23. G1U C3G A14G G19U U20G U34G G35U showed a self-cleavage of 0.5. In the case of G1C C3G C8G A24C U28A, the self-cleavage is reported as 0.03. In the case of G1C U28C G36U, the self-cleavage is reported as 0.06. Work on G1C C10A G30A C31G yielded a self-cleavage of 0.02. Variant G1C G2U G19C U28G G29U G36U C46A has a self-cleavage of 0.05. G1C G17U A25U gave a self-cleavage of 0.02. With G1C G21C A26C A41G the self-cleavage was 0.01. For G1U A4C U9A C10U C46U, the self-cleavage was 0.01. G1C U9A C18U U20C showed a self-cleavage of 0. In the case of G1C A11C G29C, the self-cleavage is reported as 0.01. With G1C C13G C15G the self-cleavage was 0.02. Work on G1U A11G U20C U43A yielded a self-cleavage of 0.01. For G1C U9C G17C U38G C46A, the self-cleavage was 0.03. In the case of G1C C3A G17C G19A G36A C37U, the self-cleavage is reported as 0.18. Variant G1C G7U C8U A24U A25G has a self-cleavage of 0.1. G1C A14C C15U C18G C37U C42U showed a self-cleavage of 0.03. Work on G1U C13G G19U C23U G30C yielded a self-cleavage of 0.03. Variant G1U A4U A12C A14U G21A G22U has a self-cleavage of 0.03. Work on G1U C3A C10A C18U G33A yielded a self-cleavage of 0.01. G1C G33U U34G C45U gave a self-cleavage of 0.01. Work on G1C A12U C15G G22U C37A A39U G44C yielded a self-cleavage of 0.01. Work on G1C C8A A24U U32C C42A yielded a self-cleavage of 0.06. G1U A11U A12C A14C G22A C23A G40A showed a self-cleavage of 0.01. G1U C3A A6C G27C U38G C46U showed a self-cleavage of 0.04. G1U C3A G44A showed a self-cleavage of 0.72. Variant G1C C3A C13G G35U G44U has a self-cleavage of 0.32. Work on G1U A4C G30A U32C yielded a self-cleavage of 0.01. Variant G1U C8G A14G has a self-cleavage of 0.01. Work on G1U C3G A6C A12C C23G G33A G40U C46U yielded a self-cleavage of 0.01. G1U A14U C18A A39U A41G G44C gave a self-cleavage of 0.02. Variant G1C G5U C31A has a self-cleavage of 0.04. G1U C3A G35A gave a self-cleavage of 0.33. For G1C G2A C13U U38C G44U, the self-cleavage was 0.02. For G1C G2U C15U C18G G36A C37A, the self-cleavage was 0. G1C C23U A41C gave a self-cleavage of 0.02. In the case of G1U C13U A14G C18U U38A, the self-cleavage is reported as 0.01. G1C G17A G36U showed a self-cleavage of 0.01. Work on G1C G17A C18G G22A A41G yielded a self-cleavage of 0.01. Work on G1C C10A C18A G19A U34C G35U G44A yielded a self-cleavage of 0.01. In the case of G1C C8U C23A G35U, the self-cleavage is reported as 0.02. G1C U20A G36C A41G gave a self-cleavage of 0. In the case of G1C C3A C10A A11C, the self-cleavage is reported as 0.02. G1C G19A G29U C45G gave a self-cleavage of 0.2. G1U A12G C42U showed a self-cleavage of 0.02. With G1C G30C C31A the self-cleavage was 0.06. G1C C10U A25C G27C G40A showed a self-cleavage of 0. G1U A4C G7C showed a self-cleavage of 0.25. Variant G1C G21A G29A has a self-cleavage of 0.15. Variant G1C G21A C42G C45A has a self-cleavage of 0. In the case of G1C C10A C46A, the self-cleavage is reported as 0.01. With G1C G21A U34C U38G A41G the self-cleavage was 0.01. Work on G1C C8G U9A C18U G19U C31G A41G C45A yielded a self-cleavage of 0.02. G1U C8G C31A gave a self-cleavage of 0.07. G1C G29U G30U G33U G35A U38C gave a self-cleavage of 0.07. G1C G22A C37U C42A showed a self-cleavage of 0.01. G1C G29A G30C gave a self-cleavage of 0.45. With G1C A12G U43A C46A the self-cleavage was 0.04. G1C U20C C23U gave a self-cleavage of 0.14. G1C C15G A41U C45G showed a self-cleavage of 0.01. In the case of G1C C8U G29A U34A G40U A41C, the self-cleavage is reported as 0. G1U A41C C46G gave a self-cleavage of 0.01. Work on G1U A11C A12U C13G G17C A24G U32A yielded a self-cleavage of 0. Variant G1U A26U C31U has a self-cleavage of 0.03. Variant G1U C13A A25G U28G has a self-cleavage of 0. For G1C C8G A11C A24G G40C, the self-cleavage was 0. G1C C10U G17U U32G G35A U38G showed a self-cleavage of 0.01. In the case of G1U A4C U34G, the self-cleavage is reported as 0.03. G1C C15U G35U G36U C46U showed a self-cleavage of 0.02. In the case of G1C C3G A4C A11U G35U A41G, the self-cleavage is reported as 0.03. With G1U C10A U43C the self-cleavage was 0. G1C A25U G30U showed a self-cleavage of 0.08. Variant G1U A16C G21U has a self-cleavage of 0.03. Work on G1C G2U G7U yielded a self-cleavage of 0.14. For G1U C8A G17U, the self-cleavage was 0.04. Work on G1C C10U A12U C23G A25C G35C yielded a self-cleavage of 0. For G1U A14U G27A U28A A39U A41U U43A, the self-cleavage was 0. In the case of G1C U32A G33A C45U, the self-cleavage is reported as 0.03. Work on G1C A26C U38C yielded a self-cleavage of 0.05. Variant G1U A4C G22A U32G C37U has a self-cleavage of 0.14. G1C A11C A26C gave a self-cleavage of 0.01. G1C A24U C37G C46G gave a self-cleavage of 0.01. For G1C A16G A25U, the self-cleavage was 0.02. G1C G22A C31G C42A C45U gave a self-cleavage of 0.01. Work on G1U A6C G17C U28G yielded a self-cleavage of 0.06. Variant G1C C13A C31G G44A has a self-cleavage of 0.02. G1C U32G G44C showed a self-cleavage of 0.02. In the case of G1C C10A G35U, the self-cleavage is reported as 0.02. With G1C C15A U38G the self-cleavage was 0.02. G1C C10A G22C U32G gave a self-cleavage of 0.01. G1C C8A G27U gave a self-cleavage of 0.02. For G1C G2U G21A U32C G36C, the self-cleavage was 0.03. G1U A4G C23U showed a self-cleavage of 0.14. G1U A6G C13G G29C G33A A41U C46G showed a self-cleavage of 0.01. In the case of G1U C8U C23G, the self-cleavage is reported as 0.03.
